Experimental data taken from patent US6706740B2, “Fungicidal heterocyclic aromatic amides and their compositions, methods of use and preparation” (Dow AgroSciences LLC, priority 1999, dated 2004).

tested on: Plasmopara viticola—PLASVI; experiment: whole plant or invertebrate; assay type: in vivo; conditions: Plasmopara, 24 h, read-out: PLASVI in vivo 1 Day Protectant, 100 ppm, 24 hour protectant, grape; control of fungal infection vs untreated plants

`COc1ccnc(C(=O)NCC#CCCl)c1O` [Compound 239] and `COc1ccnc(C(=O)NC2C3(C)CCC(C3)C2(C)C)c1O` (centres unmarked) [Compound 288] fall in the same range of pest or weed control at 100 ppm: 25 to 74% for the first, 25 to 74% for the second.

Compared with `COc1ccnc(C(=O)N[C@H]2CO[C@@H](C(C)Cc3ccc(C(C)(C)C)cc3)OC2)c1O` (some centres unmarked) [Compound 317], `COc1ccnc(C(=O)NC2C[C@H](C)O[C@@](C)(Cc3ccccc3)C2)c1O` (some centres unmarked) [Compound 312] is lower in pest or weed control at 100 ppm: 25 to 74% for the first, < 25% for the second.

Compared with `O=C(Nc1ccc(Cl)cc1)c1ncccc1O` [Compound 213], `O=C(NCc1ccc(Cl)c(Cl)c1)c1ncccc1O` [Compound 221] is lower in pest or weed control at 100 ppm: 25 to 74% for the first, < 25% for the second.

`O=C(NCc1cccc2ccccc12)c1ncccc1O` [Compound 228] and `COc1ccccc1CNC(=O)c1ncccc1O` [Compound 224] cannot be ordered by pest or weed control at 100 ppm: < 25% for the first, < 25% for the second.

`COc1ccnc(C(=O)NC2CCC[C@H]3[C@H]4CC[C@H](C4)[C@@H]23)c1O` (some centres unmarked) [Compound 291] and `COc1ccnc(C(=O)N[C@H]2C(O)[C@@H]3CC[C@H]2[C@@H]2CCCC[C@@H]23)c1O` (some centres unmarked) [Compound 293] cannot be ordered by pest or weed control at 100 ppm: < 25% for the first, < 25% for the second.

`COc1ccnc(C(=O)NC2CC(c3ccco3)CC(C)(C)C2)c1O` (centres unmarked) [Compound 258] and `COc1ccnc(C(=O)NC2CC(C)(C)/C=C\CC(C)(C)C2)c1O` (centres unmarked) [Compound 283] cannot be ordered by pest or weed control at 100 ppm: < 25% for the first, < 25% for the second.

First: CCCCCCCCCNC(=O)c1ncccc1O [Compound 201]
Second: COc1ccnc(C(=O)NC2CC(C)(C)CC(C)(C(=O)CCCc3ccccc3)C2)c1O (centres unmarked) [Compound 276]
The pest or weed control at 100 ppm of the first is lower: < 25% for the first, 25 to 74% for the second.

First: COc1ccnc(C(=O)N[C@@H]2CC3CC2[C@H]2COC[C@@H]32)c1O (some centres unmarked) [Compound 302]
Second: COc1ccnc(C(=O)NC2CC(C)(C)C=CC(C)C2C)c1O (centres unmarked) [Compound 279]
The pest or weed control at 100 ppm of the first is higher: 25 to 74% for the first, < 25% for the second.

First: COc1ccnc(C(=O)N[C@H]2CC3CC2C[C@@H]3COCc2cccc(C(F)(F)F)c2)c1O (some centres unmarked) [Compound 296]
Second: COc1ccnc(C(=O)N[C@H]2CC3CC2[C@@H](COCc2cccc(C(F)(F)F)c2)C3)c1O (some centres unmarked) [Compound 295]
The pest or weed control at 100 ppm of the first is lower: < 25% for the first, 25 to 74% for the second.

same assay, conditions: Plasmopara, 24 h, read-out: PLASVI in vivo 1 Day Protectant, 100 ppm, grape, 24 hour protectant, % control of fungal infection vs untreated plants

Compared with `COCCC(=O)Oc1c(OC)ccnc1C(=O)Nc1ccc(C(=O)Oc2cccc(C(F)(F)F)c2)cc1` [Compound 716], `COCCC(=O)Oc1c(OC)ccnc1C(=O)Nc1cccc(C(=O)Nc2ccc(C(F)(F)F)cc2)c1` [Compound 714] is lower in pest or weed control at 100 ppm: 25 to 74% for the first, < 25% for the second.

`COc1ccnc(C(=O)N[C@H]2COC(=O)[C@H](Cc3ccccc3)[C@@H](OC(=O)C(C)C)[C@H](C)OC2=O)c1O[Si](C)(C)C(C)(C)C` [Compound 720] and `COc1ccnc(C(=O)N[C@H]2COC(=O)[C@H](Cc3ccccc3)[C@@H](OC(=O)C(C)C)[C@H](C)OC2=O)c1OC(=O)C(C)C` [Compound 602] cannot be ordered by pest or weed control at 100 ppm: < 25% for the first, < 25% for the second.

`COc1ccnc(C(=O)N[C@H]2COC(=O)[C@H](Cc3ccccc3)[C@@H](OC(=O)C(C)C)[C@H](C)OC2=O)c1OC(=O)COCc1ccccc1` [Compound 656] and `COc1ccnc(C(=O)N[C@H]2COC(=O)[C@H](Cc3ccccc3)[C@@H](OC(=O)C(C)C)[C@H](C)OC2=O)c1OC(=O)CCCBr` [Compound 625] cannot be ordered by pest or weed control at 100 ppm: < 25% for the first, < 25% for the second.

`COc1ccnc(C(=O)N[C@H]2COC(=O)[C@H](Cc3ccccc3)[C@@H](OC(=O)C(C)C)[C@H](C)OC2=O)c1OC(=O)C1CCC1` [Compound 604] and `COc1ccnc(C(=O)N[C@H]2COC(=O)[C@H](Cc3ccccc3)[C@@H](OC(=O)C(C)C)[C@H](C)OC2=O)c1OC(=O)C1CC1` [Compound 601] fall in the same range of pest or weed control at 100 ppm: 25 to 74% for the first, 25 to 74% for the second.

`C/C=C/C(=O)Oc1c(OC)ccnc1C(=O)N[C@H]1COC(=O)[C@H](Cc2ccccc2)[C@@H](OC(=O)C(C)C)[C@H](C)OC1=O` [Compound 600] and `COCCC(=O)Oc1c(OC)ccnc1C(=O)N[C@H]1COC(=O)[C@H](Cc2ccccc2)[C@@H](OC(=O)CCOC)[C@H](C)OC1=O` [Compound 705] cannot be ordered by pest or weed control at 100 ppm: < 25% for the first, < 25% for the second.

same assay, conditions: Plasmopara, 24 h, read-out: PLASVI in vivo 1 Day Protectant, 100 ppm, grape, 24 hour protectant; control of fungal infection vs untreated plants

First: COc1ccnc(C(=O)N[C@H]2COC(=O)[C@H](Cc3ccccc3)[C@@H](OC(=O)NC(C)C)[C@H](C)OC2=O)c1O [Compound 399]
Second: COc1ccnc(C(=O)N[C@H]2COC(=O)[C@H](Cc3ccccc3)[C@@H](OC(=O)NC(C)(C)C)[C@H](C)OC2=O)c1O [Compound 400]
The pest or weed control at 100 ppm of the first is lower: < 25% for the first, 25 to 74% for the second.

First: COc1ccnc(C(=O)NC(COC(=O)CC(C)O[Si](C)(C)C(C)(C)C)C(=O)OC(C)C)c1O (centres unmarked) [Compound 354]
Second: COc1ccnc(C(=O)NC(COC(=O)CC(C)OC(=O)C(C)C)C(=O)OC(C)C)c1O (centres unmarked) [Compound 352]
The pest or weed control at 100 ppm of the first is lower: < 25% for the first, 25 to 74% for the second.

`COc1ccnc(C(=O)Nc2cccc(Oc3ccccc3Cl)c2)c1O` [Compound 439] and `COc1ccnc(C(=O)Nc2cccc(Oc3ccccc3C)c2)c1O` [Compound 412] cannot be ordered by pest or weed control at 100 ppm: < 25% for the first, < 25% for the second.

`COc1ccnc(C(=O)NC2CC(=O)OCC(C)COC2=O)c1O` (centres unmarked) [Compound 378] and `COc1ccnc(C(=O)NC2COC(=O)[C@H]3CCCC[C@@H]3C(=O)OC2)c1O` [Compound 377] cannot be ordered by pest or weed control at 100 ppm: < 25% for the first, < 25% for the second.

`COc1ccnc(C(=O)Nc2ccc(NC(=O)c3cccc(C(F)(F)F)c3)cc2)c1O` [Compound 453] and `COc1ccc(Oc2cccc(NC(=O)c3nccc(OC)c3O)c2)cc1` [Compound 432] cannot be ordered by pest or weed control at 100 ppm: < 25% for the first, < 25% for the second.

`COC(=O)C(COC(=O)COCc1ccccc1)NC(=O)c1nccc(OC)c1O` (centres unmarked) [Compound 346] and `COc1ccnc(C(=O)NC(COC(=O)C(C)Cc2ccccc2)C(=O)OC(C)C)c1O` (centres unmarked) [Compound 351] fall in the same range of pest or weed control at 100 ppm: 25 to 74% for the first, 25 to 74% for the second.

`COc1ccnc(C(=O)NC(COC(=O)C(Cc2ccccc2)C(C)OC(=O)c2ccccc2)C(=O)OC(C)C)c1O` (centres unmarked) [Compound 356] and `COc1ccnc(C(=O)N[C@H](C(=O)O[C@@H](C)[C@H](OC(=O)C(C)C)[C@@H](Cc2ccccc2)C(=O)OCc2ccccc2)[C@@H](C)OC(C)=O)c1O` [Compound 361] fall in the same range of pest or weed control at 100 ppm: 25 to 74% for the first, 25 to 74% for the second.

First: COc1ccnc(C(=O)N[C@H]2COC(=O)[C@H](Cc3ccccc3)[C@@H](OC(=O)/C=C(\C)CCC=C(C)C)[C@H](C)OC2=O)c1O [Compound 396]
Second: COc1ccnc(C(=O)N[C@H]2COC(=O)[C@H](CC3CCCC3)[C@@H](OC(=O)C(C)C)[C@H](C)OC2=O)c1O [Compound 402]
The pest or weed control at 100 ppm of the first is lower: < 25% for the first, 25 to 74% for the second.

`COc1ccnc(C(=O)N[C@@H](Cc2ccc(OCc3ccccc3)cc2)C(=O)O)c1O` [Compound 337] and `COc1ccc(Oc2ccc(NC(=O)c3nccc(OC)c3O)cc2)cc1` [Compound 435] cannot be ordered by pest or weed control at 100 ppm: < 25% for the first, < 25% for the second.

`COc1ccnc(C(=O)Nc2cc(C)c(OC(=O)c3ccccc3)c(C)c2)c1O` [Compound 456] and `COc1ccnc(C(=O)Nc2cc(C)c(OC(=O)C(C)C)c(C)c2)c1O` [Compound 455] fall in the same range of pest or weed control at 100 ppm: 25 to 74% for the first, 25 to 74% for the second.

For `COc1ccnc(C(=O)N[C@H]2[C@@H](OC(C)=O)O[C@H](COC(C)=O)[C@@H](OC(C)=O)[C@@H]2OC(C)=O)c1O` [Compound 335], the pest or weed control at 100 ppm was < 25%.

same assay, conditions: Plasmopara, 24 h, read-out: PLASVI in vivo 1 Day Protectant, grape plants, 100 ppm, 24 hour protectant; control of fungal infection vs untreated plants

First: O=C(NC(Cc1ccccc1)c1ccccc1)c1cccnc1O (centres unmarked) [Compound 519]
Second: O=C(NC(Cc1ccccc1)c1ccccc1)c1nc(Br)ccc1O (centres unmarked) [Compound 491]
The pest or weed control at 100 ppm of the first is lower: < 25% for the first, 25 to 74% for the second.

`CSc1nnc(C(=O)NC2CC(C)(C)CC(C)(C)C2)c(O)n1` [Compound 545] and `CC1(C)CC(NC(=O)c2conc2O)CC(C)(C)C1` [Compound 560] fall in the same range of pest or weed control at 100 ppm: 25 to 74% for the first, 25 to 74% for the second.

`COc1ccnc(C(=O)Nc2ccc(Oc3cc(C(F)(F)F)ccn3)cc2)c1O` [Compound 461] and `COc1ccnc(C(=O)Nc2ccc(Oc3cccc(C(F)(F)F)n3)cc2)c1O` [Compound 463] cannot be ordered by pest or weed control at 100 ppm: < 25% for the first, < 25% for the second.

`O=C(NCc1ccccc1)c1ccncc1O` [Compound 506] and `CC(NC(=O)c1ccncc1O)c1ccc(Oc2ccccc2)cc1` (centres unmarked) [Compound 512] fall in the same range of pest or weed control at 100 ppm: 25 to 74% for the first, 25 to 74% for the second.

`CCOc1ccnc(C(=O)NC2COC(=O)[C@H](Cc3ccccc3)[C@@H](OC(=O)C(C)C)[C@H](C)OC2=O)c1O` (some centres unmarked) [Compound 475] and `Cc1ccnc(C(=O)N[C@H]2COC(=O)[C@H](Cc3ccccc3)[C@@H](OC(=O)C(C)C)[C@H](C)OC2=O)c1OC(=O)C(C)C` [Compound 572] cannot be ordered by pest or weed control at 100 ppm: < 25% for the first, < 25% for the second.

First: Cc1nc(O)c(C(=O)N[C@H]2COC(=O)[C@H](Cc3ccccc3)[C@@H](OC(=O)C(C)C)[C@H](C)OC2=O)nc1C [Compound 536]
Second: CC(C)C(=O)O[C@H]1[C@H](C)OC(=O)[C@@H](NC(=O)c2cc(O)cnc2O)COC(=O)[C@@H]1Cc1ccccc1 [Compound 527]
The pest or weed control at 100 ppm of the first is lower: < 25% for the first, 25 to 74% for the second.

`O=C(Nc1cccc(Oc2ccccc2C(F)(F)F)c1)c1nc(Br)ccc1O` [Compound 494] and `COc1ccnc(C(=O)Nc2cccc(Oc3ccc(C(F)(F)F)cc3)n2)c1O` [Compound 469] cannot be ordered by pest or weed control at 100 ppm: < 25% for the first, < 25% for the second.

First: O=C(Nc1ccccc1Oc1ccccc1)c1cccnc1O [Compound 520]
Second: O=C(NCc1ccc(Cl)c(Cl)c1)c1cccnc1O [Compound 517]
The pest or weed control at 100 ppm of the first is lower: < 25% for the first, 25 to 74% for the second.

First: COc1ccnc(C(=O)N[C@H]2CO[C@H](C(C)Cc3ccc(C(C)(C)C)cc3)OC2)c1OC(C)=O (some centres unmarked) [Compound 594]
Second: COc1ccnc(C(=O)NC2CC(C)(C)CC(C)(C#N)C2)c1OC(C)=O (centres unmarked) [Compound 574]
The pest or weed control at 100 ppm of the first is higher: 25 to 74% for the first, < 25% for the second.

With `CC(C)(C)C1CCC(NC(=O)c2cnccc2O)CC1` (centres unmarked) [Compound 504] the pest or weed control at 100 ppm was < 25%.
